The values that follow come from the RNAGym collection of RNA variant scans (doi:10.7554/elife.90254).

To fix the notation:
B1: LINE1-mini (parent)
chain: GGCAGAGCUCAACACAGCGUGGCAAAGUGGCUGUGGCUAGACUGCC

Read counts are not given, so values of variants with three or more changes are uncertain.

The variants in the data set derive from B1. As to the kind of experiment: self-cleavage, relative activity (ratio to wild type); higher = more cleavage; in vitro, sequencing; the parent is a self-cleaving ribozyme.
As to GGCAGAGCUCAACACAGCGUGGCAAGGUGGCUGUGGAUAGACUACC, the self-cleavage was determined as 0.03.

Consider GGCAGAGGUCAACACAGCGUGGCAAAGUGGCUUUGACUAGACUGCC, for which the self-cleavage amounted to 0.02.

Take GGCAGAGCUGAACACACCAUGGCAAAGUGGCUGUGGGUAGACUGCC: the self-cleavage is 0.02.

As to GAUAGAGCUCAACACAGAGUGGCAAAGUGGCUGUGGCUAGACUGCC, the self-cleavage came to 0.43.

On to AGCAGAGCACAACUCAGCGUGGCAAAGUGGCUGUGGCUAGACUGCC, for which the self-cleavage was determined as 0.26.

Turning to GGCUGAGCUCAAAACUGCGUGGCAAAGUGGCUGUGGCUAGCCUGCC, the self-cleavage was found to be 0.04.

As for GGCAUAGCUCAACACCGAGUGGCAAAGUGGCUGUGGCUAGACUGUC, the self-cleavage was determined as 0.03.

Regarding GGCAGAGCUCAACAGAGCAUGGCAAAAUCGCUGUGGCUAGAUUGCC, the self-cleavage stood at 0.26.

For GCCAGAGCUCAUCACAGCGUGGUAAAGUGGCUGCGGCUAGUCUGCC, the self-cleavage came to 0.03.

As for GGCAGCUCUCAACACAGCGUGGCAAAGUGGCUGUGGCCAGACUGCC, the self-cleavage was determined as 0.

In the case of CGCAGAGCUCAUCACAGCGUGGCAAAGUGGCUGUGGCAAGACUGCC, the self-cleavage came to 0.

Regarding GGCUAAGCUCAACACAGCGUGGCAAAUUGGCUGUGGCUAGACUGCC, the self-cleavage was found to be 0.08.

Consider GGCAGAGCUCAACACAGCGUGACAAAGUGGCUGUGCCUACACAGCC, for which the self-cleavage is 0.02.

GGCAGAGCUAAACGCAGCGUGGCUAAGUGGCUGUGGCUAGCCUGCC: the self-cleavage turned out to be 0.

For the variant GACCGAGCUCAACCCAGCGUGGCAAAGUGGCUGUUGCUAGACUGCC, the self-cleavage turned out to be 0.42.

Consider GGCAGCGCUCAACACAGCGUGGCAAAGGGGCUCUGUCUAGACUGCC, for which the self-cleavage came out at 0.06.

In the case of GGCAGUGCACAACGCAGCGUGGCAAAGUGGGUGUGGCUAGACUGCC, the self-cleavage is 0.02.

In the case of GGCAGCGAUCAACACAGCGUGGCAAAGAGGCUGUGGCUAGACUGCC, the self-cleavage was 0.21.

Regarding GACAGAGCUCAACUCUGCGUGGCAAAGUGGCUGUGGUUAGACUGCC, the self-cleavage stood at 0.08.

Turning to GGCAGAGCACAACACACCGUGGCAGAGUGGCUGUGUCUAGACUGCC, the self-cleavage amounted to 0.12.

For the variant GGCAGAGUUCCACACAGCGUGGCAAAGUGGCUGUGGCUAGACUUAC, the self-cleavage was 0.03.

GGCAGACCUCAUCACAGCGUGGCAAAUUCGCUGUGGCUAGACUGCC: the self-cleavage was 0.02.

On to GGCAGAGCUCAACACAGCGUGUCAACGUUGCUGUGGCUAGACUGCC, for which the self-cleavage is 0.24.

As to GGCAGAUCUCAACACAUAAUGGCAAAGUGGCUGUGGCUACACUGCC, the self-cleavage stood at 0.22.

For the variant GGUACAGCUCAACACAGCUUGGCAAAGUGCCUGUGGCUAGACUGCC, the self-cleavage stood at 0.06.

Take GGCAGAGCUCGACACAGCGUGGCAAAGUAGCUGUGCCUAGACUGCC: the self-cleavage stood at 0.02.

On to CCCAUAGCUCAACACAACGUGGCAAAGUGGCUGUGGCUAGACUGCC, for which the self-cleavage was 0.01.

Turning to GGCUGAGCUCAACACGGCGUGGCAAAGUCGCUGUGGCUAGACUGCC, the self-cleavage worked out at 0.05.

In the case of CGCAGACCUGAACAAAGCGUGGCAAAGUGGCAUCGGCUAGACUGCC, the self-cleavage stood at 0.02.

Turning to GGCAAAGCUCAACACAGCGUGGCAAGGUUGUUGUGUCUAGACUGCC, the self-cleavage is 0.06.

For the variant GGCAGAGCUCAACACAGCUUAGCAUAGUGGCUGUGGCUAGACUGCU, the self-cleavage stood at 2.67.

As for GGCACAGCUCAACACAGCGUGGCAAAGUGGCUGUGGCUAGCUUGAC, the self-cleavage stood at 0.06.

Take GGCAGAGCUCAACAGAACGUGGCAAAGUGGCUGUGGCUAGCCUGCC: the self-cleavage was determined as 0.07.

GGCAGAGCUGAACACAGAGUGGCAAAGUGACUGUGGGUAGACAGCC: the self-cleavage stood at 0.01.

As for AGCAGAGCUCAACACAGCGUGGCAAAGGGGCUGUGGCUAGACUGCU, the self-cleavage was 2.9.

As for GGCAGAGCUGAACACAGCGUGACAAUGUGGCUGUGGCUAGACGGCC, the self-cleavage was found to be 0.

With GGCACAGCUCAACACAGCGUGGAAAAGUGGCUGUGGCUUGAUUGCC, the self-cleavage turned out to be 0.02.

On to GGCAGAGCUCAACACAGCGUUGCAAAGUGGCUGUAACUAGACUGCC, for which the self-cleavage came to 0.22.

In the case of GCCAGAGCUCAACACAGCGUGGCAAAGUGGCUGCGCCUAGACUGCC, the self-cleavage was 0.06.

Take GGCAGAGCUCAACACAGCGUGGCAAACUGCCUGAGGCUAGACUGCC: the self-cleavage was 0.08.

GGCAGAAGUCAAAACAGCGUGGCAAAUUGGCUGUGGCUAGACUGCC: the self-cleavage was determined as 0.11.

As to CGGAGAGCUCAACACAGCGUGGCAAAGAGGCUGUGGCUAGACUGCC, the self-cleavage came out at 0.11.

As to GGCAGAGCUCACCACAGCGUGGCAAAGAGGCUGGGGAUAGACUGCC, the self-cleavage stood at 0.01.

As for GGCAGAGCUCAACACGGCGUGGCAAAUUGGCUGUGUCUAGACUGCC, the self-cleavage is 0.11.

Turning to GGCACAGCUCAACACAACGUGGCAAAGUGGCUGUGGCUAUACUGCC, the self-cleavage was found to be 0.04.

Consider GGCAGAGCUCAACGCAGCGUGGCUAAGUGGCUGUGGCUAUACUGCC, for which the self-cleavage came to 0.15.

GGCAGAGUUCAACACAGCGUGGCACAGUGGCUUUGGCUAGACUGCC: the self-cleavage was determined as 0.11.

Regarding GGCAGAGCUCAACACAGCGUGACAAAGUGACUGAAGCUAGUCUGCC, the self-cleavage came out at 0.09.

On to GGCAUAGCUUAACACUGCGUGGCAAAGUGGCUGGGGCUAGACUGCC, for which the self-cleavage amounted to 0.02.

Consider CGCAGAGCUCAACACAACGUUGCAAAUUGGCUGUGGCUAGACUGCC, for which the self-cleavage came to 0.03.

As to GGCAGAGCUCAACACAGCGGGGCAGAGUGUCUGAGGCUAGAAUGCC, the self-cleavage was determined as 0.02.

For GUCAGAGCUCAACACAGCGUGGCAAAGUGUGUGUGGCUAGCCUGCC, the self-cleavage came to 0.02.

Consider GGCAGAGCUAAACACAGCGUGGCAAAGUGGAUGUGGCUACACUGCC, for which the self-cleavage stood at 0.02.

For GGCACAGCUCAACACAACGUGGCAACGUGGCUGUGGCUAGACUGCC, the self-cleavage was found to be 0.06.

Turning to GACAGAGCUCAACAUAGCGUGGCAAAGUGGCUUUUGCUAGGCUGCC, the self-cleavage came to 0.32.

Consider GGCAUAGCUCAACACAGCGGGGCAAAGGGGCUGUGGCUAGACUGCC, for which the self-cleavage was found to be 0.07.
